Data: article PMC4336329 (PLoS ONE, 2015)
Hit rate of the full screen: of about 310,000 compounds, about 2,200 (0.71%) showed an effect of 50% or more. Effects have a minus sign here. The list shows a part of the results.

Biological target: human ether-à-go-go-related gene (hERG) potassium channel (human, UniProt Q12809)
Test: primary screen, population patch clamp on CHO cells stably expressing hERG

human ether-à-go-go-related gene (hERG) potassium channel, sequence (Q12809 whole entry, looked up): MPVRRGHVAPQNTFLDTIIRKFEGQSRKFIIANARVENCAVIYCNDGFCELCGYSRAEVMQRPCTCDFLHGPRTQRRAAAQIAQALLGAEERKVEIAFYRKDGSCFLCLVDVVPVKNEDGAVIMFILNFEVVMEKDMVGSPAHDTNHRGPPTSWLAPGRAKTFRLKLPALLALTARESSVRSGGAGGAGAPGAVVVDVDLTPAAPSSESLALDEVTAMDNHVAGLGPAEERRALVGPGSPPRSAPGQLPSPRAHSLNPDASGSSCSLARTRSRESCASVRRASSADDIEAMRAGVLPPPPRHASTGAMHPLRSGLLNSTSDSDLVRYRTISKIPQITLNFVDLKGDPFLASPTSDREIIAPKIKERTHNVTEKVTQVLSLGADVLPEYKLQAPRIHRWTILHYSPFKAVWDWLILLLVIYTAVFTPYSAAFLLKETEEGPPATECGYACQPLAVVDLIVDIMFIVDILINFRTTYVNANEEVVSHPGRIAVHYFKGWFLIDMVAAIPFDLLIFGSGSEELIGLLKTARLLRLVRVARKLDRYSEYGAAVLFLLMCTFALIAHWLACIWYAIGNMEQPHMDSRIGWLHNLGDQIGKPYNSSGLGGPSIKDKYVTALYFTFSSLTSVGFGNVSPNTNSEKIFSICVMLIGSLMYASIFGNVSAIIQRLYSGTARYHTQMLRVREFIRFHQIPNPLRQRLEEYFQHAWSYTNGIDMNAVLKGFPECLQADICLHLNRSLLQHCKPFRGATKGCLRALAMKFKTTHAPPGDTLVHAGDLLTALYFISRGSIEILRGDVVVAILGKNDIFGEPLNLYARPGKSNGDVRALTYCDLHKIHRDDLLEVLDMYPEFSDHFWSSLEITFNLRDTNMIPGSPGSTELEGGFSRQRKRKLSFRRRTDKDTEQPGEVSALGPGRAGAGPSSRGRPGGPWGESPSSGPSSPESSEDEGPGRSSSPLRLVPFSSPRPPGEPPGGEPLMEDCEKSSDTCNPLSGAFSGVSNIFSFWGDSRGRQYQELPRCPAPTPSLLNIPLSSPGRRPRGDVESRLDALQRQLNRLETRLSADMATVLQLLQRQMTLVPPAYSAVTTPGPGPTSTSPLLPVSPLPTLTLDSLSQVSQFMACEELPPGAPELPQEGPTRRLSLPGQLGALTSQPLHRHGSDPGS

Compound | hERG current change (%, negative = inhibition) at 1uM
O=C(NCc1ccccc1)C(c1ccco1)N(C(=O)c1ccccn1)c1ccc(F)cc1 (stereo not drawn) | 12%
CCn1c(SCC(=O)Nc2ccc3c(c2)OCO3)nc2c1c(=O)n(C)c(=O)n2C | 1.51%
O=C(O)C1CCCN(S(=O)(=O)c2ccc(-c3ccc(=O)[nH]n3)s2)C1 (stereo not drawn) | 17%
COc1ccc(CNC(=O)CCSc2nc(-c3ccc4c(c3)OCO4)cc(C(F)(F)F)n2)cc1 | 9.84%
Cc1cc(-c2nc3ncccc3o2)ccc1N | 3.4%
COc1ccc(N(CC(=O)N/N=C/c2cccnc2)S(=O)(=O)c2ccccc2)c(OC)c1 | 8%
CCN(CC)c1ccc2cc(/C(N)=N/NC(=O)c3cccs3)c(=O)oc2c1 | -2.78%
CCC(NC(=O)c1ccccc1NC(=O)c1ccco1)C(=O)NNC(=O)c1ccncc1 (stereo not drawn) | 10.2%
Cc1ccc(S(=O)(=O)N(C)C)cc1NC(=O)c1n[nH]c(=O)c2ccccc12 | 14%
COc1ccc(C2NC(=S)NC3=C2N2CCC3CC2)cc1 (stereo not drawn) | 10.7%
c1ccc(-c2onc3cc4c(cc23)OCCO4)cc1 | 8.58%
CCc1nc2oc3ccc(C)cc3c(=O)c2cc1C(=O)OC | 8.62%
COc1ccccc1Cn1c(=S)[nH]c2cc(C(=O)NCC(OC)OC)ccc2c1=O | 17.4%
O=C(c1ccc2nsnc2c1)N1CCN(c2ccc([N+](=O)[O-])cc2)CC1 | -57.4%
C=C(Cl)COc1ccc2c(CCC)cc(=O)oc2c1 | 1.04%
CCCC(=O)Nc1ccc2c(c1)nc1n2CCOC1 | 14.1%
NS(=O)(=O)c1ccc(N=Nc2ccc(O)c3ncccc23)cc1 | 17.6%
COC(=O)C(NC(=O)c1ccco1)(Nc1cc(C)ccn1)C(F)(F)F (stereo not drawn) | 13.6%
O=C(NC1CCCN(CCc2ccccc2)C1)C1CCCC1 (stereo not drawn) | 3.14%
O=C1CC(C(=O)N2CCc3ccccc32)CN1c1cccc(C(F)(F)F)c1 (stereo not drawn) | 10.7%
CCOc1ccc(NC(=O)CSC2=NCCN2)cc1.Cl | 3.32%
CCCC(C(=O)Nc1ccc2c(C)cc(=O)oc2c1)c1ccccc1 (stereo not drawn) | 12.4%
Cc1ccc2c(c1)C1CN(C)CCC1N2C(=S)NC(=O)c1ccc(Cl)cc1Cl (stereo not drawn) | -33.6%
CCC1(C)CC(CCNS(=O)(=O)c2ccc(C)cc2)(c2ccc(C)cc2)CCO1 (stereo not drawn) | 11.1%
CC(=O)Nc1ccc(S(=O)(=O)Nc2cccc(C(=O)Nc3ccccc3C(=O)O)c2)cc1 | 10.5%
CCOc1ccc(NC(=O)CN(C)C(=O)c2cc(S(=O)(=O)N3CCCCCC3)ccc2OC)cc1OCC | 10.4%
COc1cccc(C(=O)Nc2ccccc2-c2ccccc2)c1 | -1.34%

Compound | hERG current change (%, negative = inhibition) at 1uM
Cc1ccc2nc(SCC(=O)NCc3cccs3)c(C#N)cc2c1 | -0.375%
O=P(OCC1CC1)(c1ccccc1)c1ccccc1 | 11.5%
CCC(CC)c1nnc(NC(=O)c2ccc(S(=O)(=O)N3CCc4ccccc4C3)cc2)s1 | 14.5%
COc1ccc(CN2CCN(C(=O)Cn3ncn4cccc4c3=O)CC2)c(OC)c1OC | 5.28%
COc1cc(NC(=O)c2c(-c3ccccc3Cl)noc2C)c2ncccc2c1 | 18.4%
CCCC(O)(c1ccc(OC)cc1)C(CN(C)C)c1ccccc1 (stereo not drawn) | 11%
COc1cccc(C(=O)N2CCN(C(=O)C3COc4ccccc4O3)CC2)c1 (stereo not drawn) | 18.6%
Cc1cc(C)nc(/N=C(\N)Nc2ccc(C)c([N+](=O)[O-])c2)n1 | 12.9%
COc1ccc(CNC(N)=O)cc1OC | -1.05%
COc1ccccc1CC(=O)Nc1cc(C)ccn1 | 11.8%
COc1ccc(C)cc1S(=O)(=O)NCC(c1ccc2c(c1)OCO2)N1CCN(C)CC1 (stereo not drawn) | -54.9%
CCOc1cc(C2NC(=O)NC(C)=C2C(=O)OC(C)CC)cc(Br)c1O (stereo not drawn) | 10.2%
O=C(NCC1CCCO1)c1ccc(NC(=O)c2cccc([N+](=O)[O-])c2)cc1 (stereo not drawn) | 10.1%
CC(C)N1CCN(Cc2nc(-c3ccccc3)cs2)CC1CCO (stereo not drawn) | -5.89%
O=C(O)C(=O)O.c1ccc(OCCN2CCN(C(c3ccccc3)c3ccccc3)CC2)cc1 | 13.5%
COc1ccc(/C=N\NS(=O)(=O)c2ccc(Cl)cc2)cc1COc1ccccc1[N+](=O)[O-] | -5.26%
Cn1c(SCc2ccc(C#N)cc2)nnc1-c1ccccc1 | 7.75%
Cc1cc(C)c(S(=O)(=O)Nc2ccccc2C(=O)N2CCOCC2)c(C)c1 | -8.24%
Cl.O=[N+]([O-])c1cccc(C2NCC(c3ccccc3Cl)c3c2[nH]c2ccccc32)c1 (stereo not drawn) | 14.3%
COc1cccc(CN(C)S(=O)(=O)c2cccs2)c1 | 18.1%
CC(C)Oc1ccc(/C(O)=C2/C(=O)C(=O)N(Cc3cccnc3)C2c2ccco2)cc1 (stereo not drawn) | 14.2%
Cc1ccc2cc(/C=N/NC(=O)c3ccccc3[N+](=O)[O-])c(Cl)nc2c1 | 7.51%
O=C(O)CC(SCC(=O)Nc1ccc(Br)cc1)C(=O)O (stereo not drawn) | 17.1%
CCC(C)NCC(=O)Nc1cc(S(=O)(=O)N(CC)c2ccccc2)ccc1Cl (stereo not drawn) | -18.4%
CC(OC(=O)CCc1nc2ccccc2c(=O)[nH]1)C(=O)Nc1ncc(Cl)cc1Cl (stereo not drawn) | 10.2%
O=C1NCCCC1C(=O)N/N=C/c1cccc([N+](=O)[O-])c1 (stereo not drawn) | -6.98%
CN(C)C(=O)COC(=O)c1ccc(S(=O)(=O)NCc2ccco2)cc1 | 15.3%
